The full ranking holds about 33,000 sequences; the median of “E-score (-0.5 to 0.5)” is about -0.035, and the highest 2% start at about 0.35. The list shows a part of the results.
target: T1, Pdr3 (UniProt P33200); test: PBM E-score (8-mer binding enrichment) (E-score (-0.5 to 0.5)); higher = stronger / more preferred TF binding; most listed sequences are background and not binding sites; conditions: protein concentration: 200 nM; construct: GST-full length
T1 sequence: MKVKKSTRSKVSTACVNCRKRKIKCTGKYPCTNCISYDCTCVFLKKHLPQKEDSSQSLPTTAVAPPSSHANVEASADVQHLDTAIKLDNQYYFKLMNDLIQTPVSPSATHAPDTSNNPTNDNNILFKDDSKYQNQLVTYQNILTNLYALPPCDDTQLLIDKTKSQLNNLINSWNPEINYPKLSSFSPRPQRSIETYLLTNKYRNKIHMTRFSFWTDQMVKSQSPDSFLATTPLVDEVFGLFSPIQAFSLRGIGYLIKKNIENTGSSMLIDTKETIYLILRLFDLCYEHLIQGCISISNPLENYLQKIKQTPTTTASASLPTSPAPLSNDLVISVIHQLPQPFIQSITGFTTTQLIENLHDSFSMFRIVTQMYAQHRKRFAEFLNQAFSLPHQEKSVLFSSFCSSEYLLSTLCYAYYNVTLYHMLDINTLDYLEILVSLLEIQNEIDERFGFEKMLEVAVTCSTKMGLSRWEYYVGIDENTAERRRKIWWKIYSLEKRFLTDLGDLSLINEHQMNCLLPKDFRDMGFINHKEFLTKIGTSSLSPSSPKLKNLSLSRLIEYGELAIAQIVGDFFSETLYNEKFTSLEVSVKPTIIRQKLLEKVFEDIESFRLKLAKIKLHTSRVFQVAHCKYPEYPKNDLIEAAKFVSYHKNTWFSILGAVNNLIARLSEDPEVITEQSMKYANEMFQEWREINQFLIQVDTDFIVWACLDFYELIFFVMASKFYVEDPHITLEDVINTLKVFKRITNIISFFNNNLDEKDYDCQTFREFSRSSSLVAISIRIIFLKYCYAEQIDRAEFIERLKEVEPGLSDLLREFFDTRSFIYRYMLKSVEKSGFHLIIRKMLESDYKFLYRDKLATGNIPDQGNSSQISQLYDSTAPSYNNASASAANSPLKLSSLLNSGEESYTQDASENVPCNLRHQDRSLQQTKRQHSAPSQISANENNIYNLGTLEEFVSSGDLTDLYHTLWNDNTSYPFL
Procedure, shortened: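 E-scores (a modified Wilcoxon-Mann-Whitney statistic) were assigned by the Universal PBM Analysis Suite to every ungapped eight-base word pooled with its reverse complement. The input came from universal all-10-mer Agilent arrays made double-stranded by primer extension and probed with GST-tagged yeast transcription factors at about 100-200 nM. Fluorescent anti-GST detected bound protein, and masliner normalised the scans.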

Sequence | PBM E-score
CCATGGAG | 0.0797
GACAGCAC | 0.0832
AGCGGGTC | -0.0457
GACAGAAA | 0.0471
TAGAGATA | -0.0203
CCGACGTC | 0.156
ACTCCTCT | -0.00039
CTATTCTC | -0.0123
CTGGGCAC | -0.116
CATACTAA | -0.0484
ACTGATAA | -0.103
ACGTGGTC | -0.208
AGTTAATG | -0.21
ATTAATCC | 0.152
CCCACGCA | 0.0166
TCTGCTAA | -0.155
ACACTTAA | -0.0417
AACCCCGT | 0.181
ATGTAGGG | 0.0264
ACTGGATA | 0.105
CTTGCTAC | -0.1
TCGTTTCA | -0.00013
CGAGTCGA | -0.055
ACATTGCC | -0.0168
CGGGAGAG | 0.0626

Sequence | PBM E-score
AGCGAATC | -0.0182
GATACTCC | 0.0931
GCCTAGAC | -0.209
CAGTATAA | 0.108
AAACAGTC | -0.227
CTCGCAAC | -0.121
GCCTACGC | -0.27
AATAATAG | -0.218
CATCGCGC | 0.12
AAAGTATG | -0.0427
CAAAAAAG | -0.103
ACGTGGTA | -0.126
GATACCAA | 0.147
CTTGACGA | -0.0773
AGCCCGTC | -0.0788
AAAACGAA | 0.0577
CGGATGCC | 0.222
AATATTGG | 0.0207
AATGGTTG | 0.119
AGGCCGCG | 0.199
CAAACTCG | 0.0644
AGTATGAG | 0.0117
CGTTAGAC | -0.0556
ATTCGCAC | -0.00251
GATAGAGA | -0.0875

Sequence | PBM E-score
ACCGGAAT | 0.411
GAACGGAA | 0.469
CAAATGAG | -0.245
CCCTGGAC | -0.00074
GCCTATTA | -0.02
CACGACAG | 0.0118
CATGAACA | -0.0468
AATTCTCC | 0.219
GCCACCCC | -0.0447
ACAGACGT | -0.0312
CACATATA | -0.0666
CATTGATA | 0.138
TGAAGTCA | -0.0672
ATACCCGC | 0.289
CTACGGGA | 0.148
AGTCGAAG | -0.213
ACCTCGCT | 0.149
ACCGCACT | 0.0041
CCTATTTA | 0.0255
AGGAACCC | 0.00054
AATAACAG | 0.00463
CAACAGGA | -0.249
TATATAGA | 0.0122
AGGTGCGG | 0.182
GGTGCACA | -0.158

Sequence | PBM E-score
ATCGAAAG | -0.0034
AAGACAGA | -0.0151
AAACATTT | 0.00814
GTTCGAAC | 0.0635
CTTAAGGA | -0.142
ATGCTCTC | -0.108
ACGTGGCG | -0.149
AAGTTAGC | 0.0401
ATATTCCG | 0.426
CGCGGAGC | 0.445
CATAGTGC | 0.0492
GGTTTGAA | -0.0274
GCGGCACC | 0.267
CGCTCTTA | 0.0395
CTGACCCA | -0.288
CCCGTTGC | -0.0103
GCTGCGAC | -0.197
GCAAGTTA | -0.0318
TGTGCACA | -0.106
CAACGTAG | -0.207
ATACGACG | 0.0788
GCAGACGA | 0.0069
CCGTTAGA | 0.158
CGAACAAG | 0.0812
ATTAGAGA | -0.277

Sequence | PBM E-score
GCATGATA | -0.0258
CCAGTCAG | -0.176
ACCACTAA | -0.0372
ACGACAAT | 0.0247
AAGGTGGT | -0.0672
ACACCCGT | 0.0745
GTCCGAAA | 0.264
CGCAAGGA | 0.0382
GGGCTATA | -0.115
AGTGTGTC | 0.00745
CGGCTAGC | 0.0828
TCCCCGCA | 0.271
GGCCAAAC | 0.00739
AGTCTTGG | -0.237
CATTGGCA | -0.15
AACTCACT | -0.181
CACATCGA | -0.151
AAGAACAT | 0.0641
CAAAGTTG | -0.106
AAGGGGAT | -0.00357
ATATTCGC | 0.0776
GTCCGAGA | 0.321
AATCCAGC | 0.00326
GATACCCC | 0.0962
ACTCATCT | -0.18

Sequence | PBM E-score
CAATTCGG | 0.221
CTGGAGAA | -0.315
AGCCCCAA | -0.285
CCACACTA | 0.058
CCTATGTC | -0.0741
ACGCGCAG | -0.172
GAAATCGC | 0.0559
AACTGTTC | 0.135
CCCCCTAG | -0.342
CAGATAGG | -0.173
AGCGATAC | -0.164
CTGAATAC | -0.0551
TCATGCAA | 0.0604
CAGAAAAG | 0.0862
AAATCTCC | 0.0627
AAGTCGAT | -0.0848
CTAATGAG | -0.127
ATGTTACC | 0.0491
CCGCACGA | 0.0638
ATAGCACG | -0.112
AGTGCGCG | 0.0188
GTGATCAA | -0.0371
GTGGACTA | -0.0486
GGCAGGCA | -0.0559
CCTCAAGC | -0.113

Sequence | PBM E-score
AAGCGGTG | -0.266
CAAATAAA | -0.0153
GTGCGGGA | 0.252
ACGCGCCT | -0.0277
CCCATGAC | -0.147
AAGGTATT | 0.0601
AAAACGTT | -0.0804
ACCGGATA | 0.151
CAATAGTC | -0.232
GCCCGTGA | 0.102
GCGAGCCC | 0.0251
AATAGTCG | -0.00883
CGGTAACA | 0.227
CCTAGATA | -0.229
AGCTCATA | 0.0122
ACACAACT | -0.153
AGCATTGA | -0.205
TTCGTAAA | -0.213
AGGGAGCA | -0.112
CTGTAGGA | -0.00933
AAGAGGCG | -0.0913
AGAGCCAC | -0.154

Source: the supplement of paper PMC3334620
